Hit rate of the full screen: of about 48,000 compounds, about 1,200 (2.5%) were called active. About 2% were inconclusive and are not listed.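 Rule for the calls: active = activation of at least 60% and not above a set upper limit (about 1 call in 100 departs from these limits); inconclusive = activation of 40% to 60%, or above that upper limit; inactive = activation under 40%.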 The list shows a part of the results.
Molecular target: Probable G-protein coupled receptor 32 (Homo sapiens) (UniProt O75388)
Sequence of UniProt O75388 (O75388 whole entry, looked up): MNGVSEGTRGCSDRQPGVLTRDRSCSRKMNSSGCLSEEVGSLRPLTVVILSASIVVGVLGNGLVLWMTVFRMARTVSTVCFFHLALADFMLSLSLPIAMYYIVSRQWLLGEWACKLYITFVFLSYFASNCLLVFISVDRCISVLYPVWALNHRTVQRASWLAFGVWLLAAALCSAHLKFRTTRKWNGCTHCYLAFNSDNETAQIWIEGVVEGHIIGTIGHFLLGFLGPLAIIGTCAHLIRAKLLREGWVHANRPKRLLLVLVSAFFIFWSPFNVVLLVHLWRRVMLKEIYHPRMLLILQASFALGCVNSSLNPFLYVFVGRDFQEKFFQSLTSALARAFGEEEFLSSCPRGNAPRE
Test: qHTS for Agonists of Human Resolvin D1 Receptor DRV1; note: 0% is about no effect
Conditions: CHO-K1 GPR32 beta-arrestin PathHunter luminescence, 90 min; at 76.9 µM; active compounds read high; zero percent set by DMSO-only wells
Summary of the method: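 GPR32 activation in stably transfected CHO-K1 cells, detected as beta-arrestin recruitment by enzyme-fragment complementation. Compound exposure: 90 min, 37 °C.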

activation, inactive:
CCC(C(=O)NCCc1ccc(SC)cc1)n1nc(C)c2c(C)n(-c3ccc(C)cc3)nc2c1=O (stereo not drawn) -19%
CC(=O)c1cc(-c2ccc(F)cc2)n(CCC(=O)NC2CCCCC2)c1C -15.7%
Cc1cccc(OCC(=O)Nc2cccc(-c3nc4ccccc4s3)c2)c1 -1.04%
COC(=O)c1ccccc1NC(=O)CCc1c(C)nc2cc(-c3ccc(Cl)cc3)nn2c1C 13.4%
Cc1ccc(Cl)cc1N1CCN(C(=O)c2cn(C)c3ccc(S(=O)(=O)N4CCCCC4)cc3c2=O)CC1 -9.07%
CC(C)CNc1cc(NC2CCCCC2)c2c3c(onc13)-c1ccccc1C2=O -37.2%
O=C(CC1N=C2c3ccccc3N=C(SCc3cccc(F)c3)N2C1=O)NC1CCCCC1 (stereo not drawn) -26.4%
CCSc1nc2sc3c(c2c(=O)n1-c1ccc(C)cc1)CCCC3 -6.25%
COc1cccc(CNCc2c(C(=O)O)c(C)n(Cc3ccc(F)cc3Cl)c2C)c1OC 10.7%
O=C(Nc1ccc(F)c(F)c1)c1ccc(F)c(S(=O)(=O)N2CCC3(CC2)OCCO3)c1 24.1%
O=S(=O)(Nc1cccc(-c2ccc(N3CCCCC3)nn2)c1)c1ccc(F)cc1F 16.8%
CSc1ccc(CCNC(=O)CCc2c(C)nc3c4cccnc4nn3c2C)cc1 8.63%
CCOc1ccc(NS(=O)(=O)c2ccc3[nH]cc(C(=O)N(C)C4CCCCC4)c(=O)c3c2)cc1 -0.625%
Cc1ccc2c(=O)cc(C(=O)Nc3c(C(=O)c4ccccc4)oc4ccccc34)oc2c1 8.81%
NC(=O)C1CCN(C(=O)c2ccc3c(c2)N(Cc2cccc(Cl)c2)C(=O)c2ccccc2S3(=O)=O)CC1 -24.2%
CCOC(=O)c1c(-c2ccc(C)cc2C)csc1NC(=O)c1ccccc1Cl 3.32%
O=C(NCCCN1CCCCC1)c1ccc2c(c1)sc1nc(-c3ccc(F)cc3)cn12 8.8%
COC(=O)c1c(-c2cccs2)csc1NC(=O)COc1ccccc1 -12.3%
COc1ccc(C2C(=O)N(C3CCCCCC3)CC(=O)N2Cc2ccccc2)cc1 (stereo not drawn) -25.7%
O=C(O)c1ccc[n+]([O-])c1 5.43%
COCCNC(=O)Cn1cc2c(n1)-c1c(oc(C(=O)N3CCCC3)c1C)CC2 16.5%
NC(=O)Cn1c(=O)n(CCCCCC(=O)NCc2ccccc2Cl)c(=O)c2sccc21 -9.54%
CC(CNC(=O)c1ccc(Nc2nc3ccccc3n3nnnc23)cc1)c1ccccc1 (stereo not drawn) -17.2%
CCCCOC(=O)/C(C#N)=C/c1ccc(-c2ccc(Br)cc2)o1 -9.12%
CCC(=O)N1CCN(c2nc3c(C)cccc3s2)CC1 -0.0719%
COc1ccc(OC(=O)CSc2nnc(-c3ccc(F)cc3)o2)cc1 -15.1%
CCCn1c2ccccc2c2cnn(CC(=O)NC(C)CC)c(=O)c21 (stereo not drawn) -12.7%
Cc1ccc([N+](=O)[O-])c(Oc2ncnc3c2oc2ccccc23)c1 -2.07%
CCc1cccc(C)c1NC(=O)c1nc2ccccc2nc1N1CCCCC1 47.3%
COc1ccc2c(Sc3ccccc3)c(C(=O)N3CCC(C)CC3)[nH]c2c1 -14%
Cc1ccc(N2C(=O)CSC23C(=O)N(CC(=O)Nc2ccc(C)cc2C)c2ccccc23)cc1 (stereo not drawn) -7.57%
Cc1c(N)c(=O)n(-c2ccccc2)n1C -6.13%
Cc1ccc(NC(=O)CCCN2C(=O)COc3ccc(C)cc32)c(C)c1 -27.7%
O=S(=O)(c1ccccc1)c1nnn2c1nc(NC1CCCCCC1)c1sccc12 -3.11%
Cc1cccc(Cc2c(C)nc3nc(SCc4cccc(F)c4)nn3c2C)c1 -12.7%
COc1ccccc1CNC(=O)C(=O)NCC(c1cccnc1)N1CCN(c2ccc(F)cc2)CC1 (stereo not drawn) 2.27%
CCOc1ccc(CCNC(=O)CN2C(=O)COc3ccc(S(=O)(=O)N(CC)CC)cc32)cc1 -0.128%
Cc1ccc(Cn2ccnc2SCC(=O)NC2CCCC2)cc1 -2.34%
COc1cc(S(=O)(=O)n2ccnc2C(C)C)ccc1Br -14.5%
Cc1ccc(-c2nc(S(=O)(=O)c3ccc(C)cc3)c(N3CCCCC3)o2)cc1 -5.54%
O=C(CN(c1cccc(C(F)(F)F)c1)S(=O)(=O)c1ccccc1)Nc1cccc(Cl)c1 21.9%
COc1ccc2c(CNCc3ccco3)c(C(=O)O)n(Cc3ccccc3)c2c1 13%
COc1ccc(Cl)cc1NC(=O)Cn1nnc(C(=O)NCc2cccs2)c1N -1.65%

— PubChem BioAssay AID1346428 (National Center for Advancing Translational Sciences (NCATS), 2018)
